In all, about 48,000 compounds went through this assay and about 450 (0.94%) were called active. About 19% were inconclusive and are not listed. The call rests on the fitted dose curve; in most records, active means well fitted inhibition curve with a large enough effect; inconclusive means small, poorly fitted or top-dose-only effect; inactive means no such curve, though single readings can be large or run the other way. This is one part of the list.
assay: Primary qHTS for Identification of Small Molecule Inhibitors of Huntingtin Promoter Activity; details: HEK293 HTT promoter firefly luciferase reporter (activity 0% = vehicle and -100% = no light), 24 h; series mostly up to 57.5 µM; activity change, negative = inhibition: at the top concentration; further: nearly all actives have a fitted effect of over 50% in size
How it was run: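 Firefly luciferase readout (Dual-Glo, 10 min RT) after 24 h, 37 °C compound exposure (final up to 57.5 uM) of HEK293 reporter cells cultured 24 h beforehand; PTC124 at 50 uM final as control inhibitor; activity scaled vehicle 0%, zero RLU -100%.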
Potency means the concentration at half of the fitted maximal effect.

Activity change, negative = inhibition, inactive:
COc1cc(CNc2ccc3[nH]c(=O)[nH]c3c2)ccc1OCc1ccc(F)cc1Cl -6.62%
COC(=O)c1ccc2c(=O)n3nc(Nc4ccc(F)cc4F)sc3nc2c1 -1.84%
CS(=O)(=O)N(Cc1ccccc1)c1ccc(C(=O)Nc2cccc(Cl)c2)cc1 -7.98%
COc1ccc(CNC(=O)c2ccc3c(O)c(S(=O)(=O)c4ccccc4)c(=O)[nH]c3c2)cc1 -4.8%
Cc1cc(NS(=O)(=O)c2ccc(N)cc2)no1
COc1ccc(NC(=O)c2c(NC(=O)C(F)(F)F)sc3c2CCCCC3)cc1 -1.86%
O=C(Nc1cccc(C(F)(F)F)c1)Nc1nnc(N2CCCCCC2)s1 -14%
COCCCNC(=O)CN1C(=O)c2cccnc2Sc2ccccc21 -5.05%
COc1ccccc1N1CCN(C(=O)c2cc(-c3ccc(C)c(F)c3)on2)CC1 2.6%
Cc1ccc(NC(=O)CSc2nc(-c3ccco3)cc(C(F)(F)F)n2)c(C)c1 -15.7%
CCOc1ccc(S(=O)(=O)N2Cc3ccccc3CC2C(=O)Nc2ccc(NC(C)=O)cc2)cc1 (stereo not given) -19%
CCN(CC)CCNC(=O)C(=O)Nc1c2c(nn1-c1ccc(F)cc1)CSC2 -15.6%
Cc1cccc(NC(=O)CSc2nc3ccc(NC(=O)COc4ccccc4C)cc3s2)c1 -10.7%
O=C(NCc1ccc(Cl)cc1)C1CCN(c2nn3cc(-c4ccc(F)cc4)nc3s2)CC1 3.93%
CCn1c2c(c(=O)n3ncc(C(=O)Nc4cc(Cl)ccc4OC)c13)CN(Cc1ccc(OC)cc1)CC2 -3.48%
CCCNC(=O)CCC(=O)N1Cc2cccc(OC)c2Oc2ncccc21 -0.186%
CC1CN(C(=O)NCc2ccccc2)c2cc(Cl)ccc2O1 (stereo not given) 4.29%
COc1ccc(NC(=O)c2nc(S(C)(=O)=O)ncc2N(Cc2ccc(C)cc2)Cc2ccco2)cc1Cl -16.8%
COc1cccc(CNC(=O)c2cc(-c3ccc(Cl)s3)nc3ccccc23)c1 9.88%
CCCCc1cc(=O)oc2cc(C)c3c(C(C)(C)C)coc3c12 -8.56%
COc1ccc(C)cc1NC(=O)N1CCN(S(=O)(=O)c2ccc3c(ccn3C)c2)CC1 -26%
Cc1ncc(CO)c2c1Oc1nc(-c3ccc(Cl)cc3)nc(SCC(=O)N3CCCCC3)c1C2 -21.4%
Cc1cccc(CSc2nc3c(sc4ccccc43)c(=O)n2CCC(=O)NC(C)C)c1 20.8%
O=C(CSc1nc2ncccc2[nH]1)Nc1cc(F)ccc1F -4.61%
O=C(CCn1c(=O)c2cccn2c2cccnc21)NCc1ccccc1Cl 5.27%
Cc1ccc(CNC(=O)CCc2c(C)nn(-c3ccc(N4CCOCC4)nn3)c2C)cc1 2.05%
CCOc1ccc(C(=O)c2cn(CC(=O)Nc3ccc4c(c3)OCO4)c3ccc(OC)cc3c2=O)cc1 -7.52%
CCn1c(=O)n(-c2ccc3c(c2)OCO3)c2nc(-c3ccc(C(C)C)cc3)nc(C(N)=O)c21 -7.98%
CCOc1ccc2c(c1)c(=O)c(C(=O)c1ccc(CC)cc1)cn2CC(=O)Nc1ccccc1OC -13.6%
COc1ccc(OC)c(NC(=O)Cn2c(=O)c3cccn3c3ccccc32)c1 -5.84%
CCOC(=O)C1CCN(C(=O)c2nn(-c3ccc(OC)c(Cl)c3)c(=O)c3c2c2ccccc2n3C)CC1 8.85%
Cc1ccc(Cl)cc1NC(=O)CSc1nc2ccccc2c2nc(-c3ccccc3)nn12 -5.32%
Cc1ccc(S(=O)(=O)c2cn(CC(=O)Nc3cccc(Cl)c3)c3ccccc3c2=O)cc1 -30.9%
CC1(C)N=C(SCc2ccc(F)cc2)c2ccccc2N1 -4.07% [at 11.5 µM]
O=C(Cn1cc(C(=O)C(F)(F)F)c2ccccc21)N1CCCCCC1 -12.4%
O=C(COc1ccc2ccccc2c1)NC1CC(=O)N(c2ccc(F)cc2)C1 (stereo not given) 5.71%
CCOc1ccccc1NC1(c2ccccc2)C(=O)c2ccccc2C1=O -13.9%
CC1CCCCN1CCCNC(=O)c1cc(Sc2cccc(Cl)c2)nc2ccccc12 (stereo not given) -27.3%
Cc1ccccc1CN1c2ccccc2-c2nc(SCC(=O)c3ccccc3)ncc2S1(=O)=O -6.49%
Cc1ccccc1OCc1nc2c3cnn(-c4cccc(F)c4)c3ncn2n1 -8.65%
Cc1c(CNC2CCCCC2)c(C(=O)O)c(C)n1Cc1ccccc1F -8.62%
CCNC(=O)c1c(NC(=O)Cc2coc3ccc(CC)cc23)sc2c1CCCC2 -30%
CC(C)(C)C(=O)C(Oc1ccc(Cl)cc1)n1ccnc1 (stereo not given) 1.11%
COc1cccc(C2C(C(=O)Nc3ccc(Cl)cc3)=C(C)Nc3nc4ccccc4n32)c1OC (stereo not given) -20.6%
CCCCNC(=O)c1c(-c2ccccc2)c(-c2ccccc2)nn(C)c1=O -6.89%
Cc1oc2ncn(CC(C)C)c(=O)c2c1C(=O)N(CCN(C)C)Cc1ccccc1 8.73%
CCCCNC(=O)c1ccc2c(c1)N(CC)C(=O)c1ccccc1S2 -27.8%
CCCc1nnc(NC(=O)c2cc(=O)c3ccccc3o2)s1 47.5%
CCOC(=O)c1c(C)n(-c2ccccc2)c2ccc(OC(=O)COc3ccccc3)cc12 3.82%
CCCCNC(=O)CN1C(=O)c2cccnc2Sc2ccccc21 -14%
CC1=C(C(=O)Nc2cccnc2)C(c2cccc(F)c2)n2nc(SCc3ccccc3F)nc2N1 (stereo not given) -8.91%
O=C(CSc1nc(=O)[nH]c2c1CCCC2)NCc1ccccc1Cl -8.16%
COc1ccc(C)cc1NC(=O)c1cc(S(=O)(=O)N2CCOCC2)cn1C 27.6%
CCn1c2ccccc2c2cc(CN3CCN(Cc4cc(OC)c(O)c(OC)c4)CC3)ccc21 -1.72%
O=C(Nc1cccc(Cl)c1Cl)c1ccc2c(c1)N(Cc1cccc(Cl)c1)C(=O)c1ccccc1S2=O (stereo not given) -14.4%
Cc1ccc(NC(=O)c2sc3ncn(Cc4cccc(F)c4)c(=O)c3c2C)c(Br)c1 19.7%
Cc1ccc(C)c(NC(=O)Cn2nc(C)c3nn(-c4ccc(Cl)cc4)c(C)c3c2=O)c1 -17%
CCOc1ccccc1NC(=O)CCCc1nc(-c2ccccc2Cl)no1 -10.8%
COc1ccc(CNC(=O)CCS(=O)(=O)c2cc(Br)cc3c2N(C(C)=O)C(C)C3)cc1 (stereo not given) -18.2%
CCOc1ccc(CCNC(=O)c2cc3c(=O)n(CC)c4ccccc4c3s2)cc1OCC 3.49%
CCc1cccc(NC(=O)CSc2nncn3c2cc2sccc23)c1 3.58%
Cc1ccc(Cl)cc1N1CCN(C(=O)CN2C(=O)COc3ccc(S(=O)(=O)N4CCCCCC4)cc32)CC1 -31.3%
CCN(Cc1ccccc1)C(=O)c1cc(-c2ccccc2)n[nH]1 5.96%
Cc1c(C(=O)O)c(O)cc2c1C(=O)c1c(O)c([C@@H]3O[C@H](CO)[C@@H](O)[C@H](O)[C@H]3O)c(O)c(O)c1C2=O -7.24%
Cc1c(C)n(Cc2ccccc2)c2ccc(C(=O)N3CCN(c4ccc(F)cc4)CC3)cc12 -11.7%
Cn1cnc(S(=O)(=O)N2CCCC(C(=O)NCc3ccc(Cl)cc3)C2)c1 (stereo not given) -23.7%
CCN(CC)S(=O)(=O)c1ccc2c(c1)N(CC(=O)N1CCN(c3ccc(OC)cc3)CC1)C(=O)CO2 -9.79%
Cc1ccccc1Nc1c(-c2cccc(Cl)c2)nc2ncccn12 -9.03%
COc1ccc(-n2c(SCC(N)=O)nc3c(oc4ccccc43)c2=O)cc1 -20.2%
CC(C)CN1CCc2nc(Nc3ccc(F)cc3F)ncc2C1 52.6%
Cc1ccccc1OCC(O)CO (stereo not given) 8.62%
CC(=O)N1CCc2c(sc3c2c(=O)n(Cc2ccccc2)c(=O)n3Cc2ccccc2F)C1 -23.6%
O=C(Cc1cccs1)Nc1c(C(=O)Nc2ccc(F)cc2)oc2ccccc12 4.5%
Cc1[nH]c(C=C2C(=O)Nc3ccc(S(=O)(=O)Cc4c(Cl)cccc4Cl)cc32)c(C)c1C(=O)N1CCC[C@H]1CN1CCCC1 -2.19%
CCC(Sc1nc(-c2ccc(F)cc2)nc2c1Cc1c(CO)cnc(C)c1O2)C(=O)Nc1ccc(F)cc1 (stereo not given) -13.6%
COc1c(Cl)cc(C(=O)N(Cc2ccccc2F)C2CCS(=O)(=O)C2)cc1Cl (stereo not given) 3.05%
CC(C)(C)OC(=O)N1CCc2nc(N3CCN(c4ncccn4)CC3)ncc2C1 17.1%
Cn1c(=O)c2c(nc(SCC(=O)Nc3ccc(F)cc3)n2Cc2ccccc2F)n(C)c1=O 9.15%
COc1ccc(C(CNC(=O)c2ccc(F)cc2)N2CCCC2)cc1 (stereo not given) 0.0573%
Cc1cc(C)cc(NC(=O)N2CCC(CN3CCCCCC3)CC2)c1 -11%
CCCSc1ncc(Cl)c(C(=O)Nc2c(C(=O)c3ccc(C)cc3)oc3ccccc23)n1 -8.35%
CCC(=O)N1c2ccc(S(=O)(=O)CCC(=O)N3CCN(c4cc(C)ccc4C)CC3)cc2CC1C (stereo not given) -23.6%
CCOc1ccc2nc(NC(=O)c3nc(SCc4ccccc4C)ncc3Cl)sc2c1 -1.56%
O=C(CSc1nc2nccnc2c(=O)n1CCc1c[nH]c2ccccc12)Nc1ccccc1 -20.2%
O=C(NC1CC(=O)N(c2ccccc2)C1)C(c1ccccc1)c1ccccc1 (stereo not given) -26.1%
COC(=O)c1c(NC(=O)/C(C#N)=C/c2ccc(OC)cc2)sc2c1CCC2 3.59%
O=C1CN(/N=C/c2ccc([N+](=O)[O-])o2)C(=O)N1 -9.34%
Cc1c(CCNC(=O)c2ccc(Br)o2)sc2nc(-c3ccc(Cl)cc3)nn12 -8.27%
COc1ccc(S(=O)(=O)N2CCC(N3CCN(Cc4ccc(F)cc4)C(=O)C3=O)CC2)cc1 -13.8%
CCc1ccc(C(=O)c2cn(CC(=O)Nc3cc(OC)ccc3OC)c3nc(C)ccc3c2=O)cc1 -20.8%
Cc1oc2cc3oc(=O)c(CC(=O)NCc4ccccc4)c(C)c3cc2c1C -8.56%
CC1=C(CC(=O)O)c2cc(F)ccc2/C1=C\c1ccc(S(C)(=O)=O)cc1 -0.702%
Cc1ccc(-n2c(=O)c3sc4ccccc4c3n(C)c2=O)cc1F -3.56%
Cc1ccc(C)c(NC(=O)c2ccc3c(c2)CCCN3S(C)(=O)=O)c1 33.6%

Potency, active:
O=C(Nc1cccc(Cl)c1)C1CCCN(c2nn3cc(-c4ccc(F)cc4)nc3s2)C1 (stereo not given) 3.98 µM

Reference: PubChem BioAssay AID1508623 (National Center for Advancing Translational Sciences (NCATS), 2021)
